Measurements from PubChem BioAssay (NCATS).
The shares of active, inactive and inconclusive entries below differ from those in the screen. Potencies of inconclusive entries are left out as doubtful fits. The source made the active and inactive calls. The call rests on the fitted dose curve; in most records, active means well fitted cell-killing curve with a large enough effect; inconclusive means small, poorly fitted or top-dose-only effect, or effect the other way; inactive means no such curve, though single readings can be large or run the other way. Positions of bridges follow the written chain, without caps; N, C: chain ends. Non-standard residues stand in square brackets, D forms with d. Residues, ends and D or L forms follow the SMILES beside them. *: point of attachment. Dab(CH2SO3H) = N[C@@H](CCNCS(=O)(=O)O)C(=O)O; X2 = CC[C@@H](C)CCCCC(=O)*; Dab = NCC[C@H](N)C(=O)O

Assay: qHTS assay to identify small molecule inhibitors of chordoma cells - UCH-1 (AID 1259355); further: nearly all actives have a fitted effect of over 55% in size
Settings: UCH-1 chordoma viability, CellTiter-Glo, 48 h, combination, with auranofin plus four topoisomerase inhibitors; series mostly up to 46.1 µM; activity, negative = inhibition: at the top concentration
How it was run: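 Cells (800/well) were seeded and left overnight at 37 C, 5% CO2, then treated with drugs at 15 concentrations plus a combination mix of auranofin, camptothecin, doxorubicin, rubitecan and topotecan. Viability after 48hr was read by CellTiter-Glo luminescence.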
On the % scale 0 is the no-effect control and ±100 the full control effect; potency means the concentration at half of the fitted maximal effect; tags describe the fitted curve by direction and shape.

Compound | Potency | activity, negative = inhibition
CC(C)NCC1CCc2cc(CO)c([N+](=O)[O-])cc2N1 (stereo unspecified) | inconclusive [cytotoxic, single point] | 
CCN(CC)CCCN(c1ccccc1)C1Cc2ccccc2C1 | active: 31600 nM | 
O=S(=O)(O)c1ccc2nc(-c3ccccc3)[nH]c2c1 | inconclusive [cytotoxic, partial curve, poor fit] | 
Nc1ncnc2nc[nH]c12 | inconclusive [rising, full curve, poor fit] | 
CCOc1ccc2nc3cc(N)ccc3c(N)c2c1 | inconclusive [cytotoxic, partial curve, poor fit] | 
CC(=O)Nc1cccc(O)c1 |  | inactive: -17.9%
C[C@]12CCC(=O)C[C@@H]1CC[C@@H]1[C@@H]2CC[C@]2(C)C=CC[C@@H]12 |  | inactive: -5.02%
CC(C)(CO)[C@@H](O)C(=O)NCCCO | inconclusive [cytotoxic, full curve, poor fit] | 
Cc1ccc(C(C)C)cc2c(C)ccc1-2 |  | inactive: -7.63%
Cc1c(NC(=O)c2cccnc2)c(=O)n(-c2ccccc2)n1C |  | inactive: -1.42% [at 20.6 µM]
Cc1c(C(C)C)c(=O)n(-c2ccccc2)n1C | inconclusive [cytotoxic, full curve, poor fit] | 
C[Se]CC[C@H](N)C(=O)O |  | inactive: -4.1%
CC[C@@]1(O)C[C@H](O[C@H]2C[C@H](N(C)C)[C@H](O[C@H]3C[C@H](O)[C@H](O[C@H]4CCC(=O)[C@H](C)O4)[C@H](C)O3)[C@H](C)O2)c2c(cc3c(c2O)C(=O)c2c(O)cccc2C3=O)[C@H]1C(=O)OC | inconclusive [cytotoxic, full curve, poor fit] | 
Cc1cc(-c2ccc(N=Nc3c(S(=O)(=O)O)cc4cc(S(=O)(=O)O)cc(N)c4c3O)c(C)c2)ccc1N=Nc1c(S(=O)(=O)O)cc2cc(S(=O)(=O)O)cc(N)c2c1O | active: 11200 nM | 
CC[C@@H](C)CCCCC(=O)N[C@@H](CCNCS(=O)(=O)O)C(=O)N[C@H](C(=O)N[C@@H](CCNCS(=O)(=O)O)C(=O)N[C@H]1CCNC(=O)[C@H]([C@@H](C)O)NC(=O)[C@H](CCNCS(=O)(=O)O)NC(=O)[C@H](CCNCS(=O)(=O)O)NC(=O)[C@H](CC(C)C)NC(=O)[C@@H](CC(C)C)NC(=O)[C@H](CCNCS(=O)(=O)O)NC1=O)[C@@H](C)O (X2-[Dab(CH2SO3H)]T[Dab(CH2SO3H)][Dab][Dab(CH2SO3H)][dL]L[Dab(CH2SO3H)][Dab(CH2SO3H)]T; lactam 4-C) | inconclusive [cytotoxic, full curve, poor fit] | 
O=C(Nc1cccc(C(F)(F)F)c1)c1cc(Br)cc(Br)c1O | active: 12600 nM | 
CCN(Cc1ccncc1)C(=O)C(CO)c1ccccc1 (stereo unspecified) | inconclusive [cytotoxic, full curve, poor fit] | 
CCN(CC)C(=O)[C@]1(c2ccccc2)C[C@@H]1CN |  | inactive: 4.93%
CC1(C)O[C@@H]2C[C@@H]3[C@H]4C[C@@H](F)C5=CC(=O)C=C[C@]5(C)[C@@]4(F)[C@@H](O)C[C@]3(C)[C@]2(C(=O)CO)O1 | inconclusive [cytotoxic, full curve, poor fit] | 
N[C@H](Cc1ccc(O)c(O)c1)C(=O)O | inconclusive [cytotoxic, full curve, poor fit] | 
CC(=O)OCC(=O)[C@@]1(O)CC[C@H]2[C@@H]3C[C@H](C)C4=CC(=O)C=C[C@]4(C)[C@H]3[C@@H](O)C[C@@]21C | inconclusive [cytotoxic, full curve, poor fit] | 
CCCCC1(COC(=O)CCC(=O)O)C(=O)N(c2ccccc2)N(c2ccccc2)C1=O |  | inactive: -28.9% [at 20.6 µM]
CCCC(=O)O[C@]1(C(=O)COC(C)=O)CC[C@H]2[C@@H]3C[C@H](F)C4=CC(=O)C=C[C@]4(C)[C@@]3(F)[C@@H](O)C[C@@]21C | inconclusive [cytotoxic, partial curve, poor fit] | 
CCCC(=O)O[C@]1(C(=O)CO)CC[C@H]2[C@@H]3CCC4=CC(=O)CC[C@]4(C)[C@H]3[C@@H](O)C[C@@]21C | inconclusive [cytotoxic, full curve, poor fit] | 
C=CCNC(N)=S |  | inactive: -6.13%
CC(C)(C(=O)c1cccnc1)c1cccnc1 | inconclusive [rising, full curve, poor fit] | 
